The source of these data is the supplement of paper PMC6609913.

Molecules are shown by their SMILES. Structures can show the parent of a compound that is named as a salt. ± gives the standard deviation of the averaged measurements. In all, about 1,300 compounds were measured (“normalised cell viability”: median about 1, lowest 2% from about 0.14 on). The list shows a part of the results.

This test deals with V-C8 (BRCA2-deficient hamster cells). As to the kind of experiment: normalised cell viability (fraction of plate median); higher = more viable cells (less toxic). As to conditions: 5 µM. An outline of the steps: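 In two screens, library drugs at 5 μM were given for 3 days (screen 1) or 6 days (screen 2) to hamster V-C8 cells without BRCA2 and V-C8 cells with BRCA2 restored, seeded 24 h earlier in 96-well plates. A resazurin assay gave the cell viability readout, expressed as modified robust per cent of sample against the plate median, with triplicate wells averaged.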

Take `CCCc1nc(C)c2c(=O)nc(-c3cc(S(=O)(=O)N4CCN(CC)CC4)ccc3OCC)[nH]n12` [Vardenafil]: the normalised cell viability (treatment time: 3 days) is 1.04 ± 0.023 and the normalised cell viability (treatment time: 6 days) is 1.02 ± 0.07.
In the case of `O=C(O)/C=C/c1ccc(Cn2ccnc2)cc1` [Ozagrel hydrochloride], the normalised cell viability was found to be 1 ± 0.036 (treatment time: 3 days) and 1.05 ± 0.017 (treatment time: 6 days).
Compound `O=C(O)COC(=O)Cc1ccccc1Nc1c(Cl)cccc1Cl` [Aceclofenac] registered a normalised cell viability (treatment time: 3 days) of 0.96 ± 0.052 and a normalised cell viability (treatment time: 6 days) of 1 ± 0.084.
Take `Cc1cnc(NC(=O)C2=C(O)c3ccccc3S(=O)(=O)N2C)s1` [Meloxicam]: the normalised cell viability (treatment time: 3 days) was 0.991 ± 0.03 and the normalised cell viability (treatment time: 6 days) was determined as 1.07 ± 0.14.
For `CC1CC(OC(=O)C(O)c2ccccc2)CC(C)(C)N1C` (stereo not given) [Eucatropine hydrochloride], the normalised cell viability reads like this: (treatment time: 3 days) 0.835 ± 0.071; (treatment time: 6 days) 0.9509 ± 0.0083.
For the compound `CCN1CCC[C@H]1CNC(=O)c1c(OC)ccc(Br)c1OC` [Remoxipride Hydrochloride], the normalised cell viability is, setting by setting: (treatment time: 3 days) 1.01 ± 0.021; (treatment time: 6 days) 1.08 ± 0.027.
For `CCN1CCN(c2cc3c(cc2F)c(=O)c(C(=O)O)cn3C2CC2)CC1` [Enrofloxacin] the same measures were 0.973 ± 0.026 and 0.925 ± 0.069.
On the same counts, the results for `Cc1nnc(NS(=O)(=O)c2ccc(N)cc2)s1` [Sulfamethizole] are 1.06 ± 0.038 and 1.1 ± 0.03.
For `Nc1cc(C(Cl)=C(Cl)Cl)c(S(N)(=O)=O)cc1S(N)(=O)=O` [Clorsulon] the same measures were 1.02 ± 0.022 and 0.999 ± 0.051.
`CC[C@H](C)C(=O)O[C@H]1CCC=C2C=C[C@H](C)[C@H](CC[C@@H]3C[C@@H](O)CC(=O)O3)[C@H]21` [Mevastatin] displayed a normalised cell viability (treatment time: 3 days) of 0.23 ± 0.011 and a normalised cell viability (treatment time: 6 days) of 0.229 ± 0.0063.
Take `COc1c2occc2c(OC)c2c(=O)cc(C)oc12` [Khellin]: the normalised cell viability was determined as 1.04 ± 0.094 (treatment time: 3 days) and 1.17 ± 0.051 (treatment time: 6 days).
On to `CC(=O)OCC(CCn1cnc2cnc(N)nc21)COC(C)=O` [Famciclovir], for which the normalised cell viability was 1.07 ± 0.061 (treatment time: 3 days) and 1.04 ± 0.014 (treatment time: 6 days).
In turn, `NNc1nncc2ccccc12` [Hydralazine hydrochloride] came in with a normalised cell viability (treatment time: 3 days) of 0.9847 ± 0.0028 and a normalised cell viability (treatment time: 6 days) of 1.03 ± 0.027.
On the same counts, the results for `CN1CCN(c2c(F)cc3c(=O)c(C(=O)O)cn(CCF)c3c2F)CC1` [Fleroxacin] are 0.982 ± 0.046 and 0.977 ± 0.051.
For `C[C@H](CCC(=O)O)[C@H]1CC[C@H]2[C@@H]3[C@H](O)C[C@@H]4C[C@H](O)CC[C@]4(C)[C@H]3CC[C@]12C` [Chenodiol], the normalised cell viability is 1.08 ± 0.025 (treatment time: 3 days) and 1.21 ± 0.34 (treatment time: 6 days).
As to `CN1CCN(CCCN2c3ccccc3Sc3ccc(Cl)cc32)CC1` [Prochlorperazine dimaleate], the normalised cell viability runs as follows: (treatment time: 3 days) 0.834 ± 0.081; (treatment time: 6 days) 0.812 ± 0.075.
For `Cc1nc(=O)c2cc(CN(C)c3ccc(C(=O)N[C@@H](CCC(=O)O)C(=O)O)s3)ccc2[nH]1` [Raltitrexed] the same measures were 0.332 ± 0.028 and 0.432 ± 0.075.
Take `O=c1oc2ccccc2c(O)c1Cc1c(O)c2ccccc2oc1=O` [Dicumarol]: the normalised cell viability by setting is: (treatment time: 3 days) 1.01 ± 0.047; (treatment time: 6 days) 1.08 ± 0.08.
On the same counts, the results for `CC(C)NC[C@@H](O)COc1cccc2ccccc12` [(R)-Propranolol hydrochloride] are 0.914 ± 0.085 and 1.06 ± 0.085.
Consider `CCN(CC)CCc1nc(-c2ccccc2)no1` [Oxalamine citrate salt], for which the normalised cell viability runs as follows: (treatment time: 3 days) 0.986 ± 0.061; (treatment time: 6 days) 0.933 ± 0.14.
